Test results reported in the supplement of paper PMC11876631.
± gives the standard deviation of the averaged measurements. Laboratory Escherichia coli strains with one amino-acid change in an essential protein, pooled on minimal glucose agar with carbenicillin or gentamicin at twice the control MIC (plus kanamycin and chloramphenicol for the plasmids), 48 h. Fold change of barcode share against drug-free plates; higher = less susceptible. Active = above 20 in both replicates (the paper's putatively resistant). '<' = one read or none on drug, '>' = one read or none on a drug-free plate. Shares are relative, so most strains fall below 1 when a few take over. Listed are strains with at least 15 reads on both drug-free plates, and hits; most hits rest on fewer reference reads. Replicate rank correlation about 0.5. Edits are read from barcodes.

Molecular target: Escherichia coli (laboratory strain)
Assay: barcode share on antibiotic plates over drug-free plates; higher = less susceptible
Description: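 A pool of E. coli strains, each edited to carry one amino-acid change in an essential protein, was grown for 48 h on minimal glucose agar with or without antibiotic; strain barcodes were sequenced; mean of two replicates.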

[1] = antibiotic: carbenicillin, 2× MIC (3.1 µg/mL)
[2] = antibiotic: gentamicin, 2× MIC (MIC 0.45 µg/mL)

Protein | fold change of barcode share [1] | fold change of barcode share [2]
accD V110A (protein) MSWIERIKSNITPTRKASIPEGVWTKCDSCGQVLYRAELERNLEVCPKCDHHMRMTARNRLHSLLDEGSLVELGSELEPKDVLKFRDSKKYKDRLASAQKETGEKDALVAMKGTLYGMPVVAAAFEFAFMGGSMGSVVGARFVRAVEQALEDNCPLICFSASGGARMQEALMSLMQMAKTSAALAKMQERGLPYISVLTDPTMGGVSASFAMLGDLNIAEPKALIGFAGPRVIEQTVREKLPPGFQRSEFLIEKGAIDMIVRRPEMRLKLASILAKLMNLPAPNPEAPREGVVVPPVPDQEPEA | 0.478 ± 0.06 | 0.0134 ± 0.0034
accD V110Q (protein) MSWIERIKSNITPTRKASIPEGVWTKCDSCGQVLYRAELERNLEVCPKCDHHMRMTARNRLHSLLDEGSLVELGSELEPKDVLKFRDSKKYKDRLASAQKETGEKDALVQMKGTLYGMPVVAAAFEFAFMGGSMGSVVGARFVRAVEQALEDNCPLICFSASGGARMQEALMSLMQMAKTSAALAKMQERGLPYISVLTDPTMGGVSASFAMLGDLNIAEPKALIGFAGPRVIEQTVREKLPPGFQRSEFLIEKGAIDMIVRRPEMRLKLASILAKLMNLPAPNPEAPREGVVVPPVPDQEPEA | 0.421 ± 0.018 | 0.00807 ± 0.0019
accD V110W (protein) MSWIERIKSNITPTRKASIPEGVWTKCDSCGQVLYRAELERNLEVCPKCDHHMRMTARNRLHSLLDEGSLVELGSELEPKDVLKFRDSKKYKDRLASAQKETGEKDALVWMKGTLYGMPVVAAAFEFAFMGGSMGSVVGARFVRAVEQALEDNCPLICFSASGGARMQEALMSLMQMAKTSAALAKMQERGLPYISVLTDPTMGGVSASFAMLGDLNIAEPKALIGFAGPRVIEQTVREKLPPGFQRSEFLIEKGAIDMIVRRPEMRLKLASILAKLMNLPAPNPEAPREGVVVPPVPDQEPEA | 0.415 ± 0.053 | 0.00541 ± 0.0021
accD V110D (protein) MSWIERIKSNITPTRKASIPEGVWTKCDSCGQVLYRAELERNLEVCPKCDHHMRMTARNRLHSLLDEGSLVELGSELEPKDVLKFRDSKKYKDRLASAQKETGEKDALVDMKGTLYGMPVVAAAFEFAFMGGSMGSVVGARFVRAVEQALEDNCPLICFSASGGARMQEALMSLMQMAKTSAALAKMQERGLPYISVLTDPTMGGVSASFAMLGDLNIAEPKALIGFAGPRVIEQTVREKLPPGFQRSEFLIEKGAIDMIVRRPEMRLKLASILAKLMNLPAPNPEAPREGVVVPPVPDQEPEA | 0.588 ± 0.024 | 0.0202 ± 0.014
bioF V345D (protein) MSWQEKINAALDARRAADALRRRYPVAQGAGRWLVADDRQYLNFSSNDYLGLSHHPQIIRAWQQGAEQFGIGSGGSGHVSGYSVVHQALEEELAEWLGYSRALLFISGFAANQAVIAAMMAKEDRIAADRLSHASLLEAASLSPSQLRRFAHNDVTHLARLLASPCPGQQMVVTEGVFSMDGDSAPLAEIQQVTQQHNGWLMVDDAHGTGVIGEQGRGSCWLQKVKPELLVVTFGKGFGVSGAAVLCSSTVADYLLQFARHLIYSTSMPPAQAQALRASLAVIRSDEGDARREKLAALITRFRAGVQDLPFTLADSCSAIQPLIVGDNSRALQLAEKLRQQGCWDTAIRPPTVPAGTARLRLTLTAAHEMQDIDRLLEVLHGNG | 0.542 ± 0.035 | 0.0178 ± 0.0044
bioF V345P (protein) MSWQEKINAALDARRAADALRRRYPVAQGAGRWLVADDRQYLNFSSNDYLGLSHHPQIIRAWQQGAEQFGIGSGGSGHVSGYSVVHQALEEELAEWLGYSRALLFISGFAANQAVIAAMMAKEDRIAADRLSHASLLEAASLSPSQLRRFAHNDVTHLARLLASPCPGQQMVVTEGVFSMDGDSAPLAEIQQVTQQHNGWLMVDDAHGTGVIGEQGRGSCWLQKVKPELLVVTFGKGFGVSGAAVLCSSTVADYLLQFARHLIYSTSMPPAQAQALRASLAVIRSDEGDARREKLAALITRFRAGVQDLPFTLADSCSAIQPLIVGDNSRALQLAEKLRQQGCWPTAIRPPTVPAGTARLRLTLTAAHEMQDIDRLLEVLHGNG | 0.552 ± 0.036 | 0.00773 ± 0.0034
secY I150A (protein) MAKQPGLDFQSAKGGLGELKRRLLFVIGALIVFRIGSFIPIPGIDAAVLAKLLEQQRGTIIEMFNMFSGGALSRASIFALGIMPYISASIIIQLLTVVHPTLAEIKKEGESGRRKISQYTRYGTLVLAIFQSIGIATGLPNMPGMQGLVANPGFAFYFTAVVSLVTGTMFLMWLGEQITERGIGNGISIIIFAGIVAGLPPAIAHTIEQARQGDLHFLVLLLVAVLVFAVTFFVVFVERGQRRIVVNYAKRQQGRRVYAAQSTHLPLKVNMAGVIPAIFASSIILFPATIASWFGGGTGWNWLTTISLYLQPGQPLYVLLYASAIIFFCFFYTALVFNPRETADNLKKSGAFVPGIRPGEQTAKYIDKVMTRLTLVGALYITFICLIPEFMRDAMKVPFYFGGTSLLIVVVVIMDFMAQVQTLMMSSQYESALKKANLKGYGR | 0.303 ± 0.043 | < 0.00413
secY I150W (protein) MAKQPGLDFQSAKGGLGELKRRLLFVIGALIVFRIGSFIPIPGIDAAVLAKLLEQQRGTIIEMFNMFSGGALSRASIFALGIMPYISASIIIQLLTVVHPTLAEIKKEGESGRRKISQYTRYGTLVLAIFQSIGIATGLPNMPGMQGLVWNPGFAFYFTAVVSLVTGTMFLMWLGEQITERGIGNGISIIIFAGIVAGLPPAIAHTIEQARQGDLHFLVLLLVAVLVFAVTFFVVFVERGQRRIVVNYAKRQQGRRVYAAQSTHLPLKVNMAGVIPAIFASSIILFPATIASWFGGGTGWNWLTTISLYLQPGQPLYVLLYASAIIFFCFFYTALVFNPRETADNLKKSGAFVPGIRPGEQTAKYIDKVMTRLTLVGALYITFICLIPEFMRDAMKVPFYFGGTSLLIVVVVIMDFMAQVQTLMMSSQYESALKKANLKGYGR | 0.285 ± 0.053 | 0.00526 ± 0.0011
secY I150P (protein) MAKQPGLDFQSAKGGLGELKRRLLFVIGALIVFRIGSFIPIPGIDAAVLAKLLEQQRGTIIEMFNMFSGGALSRASIFALGIMPYISASIIIQLLTVVHPTLAEIKKEGESGRRKISQYTRYGTLVLAIFQSIGIATGLPNMPGMQGLVPNPGFAFYFTAVVSLVTGTMFLMWLGEQITERGIGNGISIIIFAGIVAGLPPAIAHTIEQARQGDLHFLVLLLVAVLVFAVTFFVVFVERGQRRIVVNYAKRQQGRRVYAAQSTHLPLKVNMAGVIPAIFASSIILFPATIASWFGGGTGWNWLTTISLYLQPGQPLYVLLYASAIIFFCFFYTALVFNPRETADNLKKSGAFVPGIRPGEQTAKYIDKVMTRLTLVGALYITFICLIPEFMRDAMKVPFYFGGTSLLIVVVVIMDFMAQVQTLMMSSQYESALKKANLKGYGR | 0.415 ± 0.22 | < 0.00372
secY I150D (protein) MAKQPGLDFQSAKGGLGELKRRLLFVIGALIVFRIGSFIPIPGIDAAVLAKLLEQQRGTIIEMFNMFSGGALSRASIFALGIMPYISASIIIQLLTVVHPTLAEIKKEGESGRRKISQYTRYGTLVLAIFQSIGIATGLPNMPGMQGLVDNPGFAFYFTAVVSLVTGTMFLMWLGEQITERGIGNGISIIIFAGIVAGLPPAIAHTIEQARQGDLHFLVLLLVAVLVFAVTFFVVFVERGQRRIVVNYAKRQQGRRVYAAQSTHLPLKVNMAGVIPAIFASSIILFPATIASWFGGGTGWNWLTTISLYLQPGQPLYVLLYASAIIFFCFFYTALVFNPRETADNLKKSGAFVPGIRPGEQTAKYIDKVMTRLTLVGALYITFICLIPEFMRDAMKVPFYFGGTSLLIVVVVIMDFMAQVQTLMMSSQYESALKKANLKGYGR | 0.262 ± 0.16 | < 0.0076
secY I150Q (protein) MAKQPGLDFQSAKGGLGELKRRLLFVIGALIVFRIGSFIPIPGIDAAVLAKLLEQQRGTIIEMFNMFSGGALSRASIFALGIMPYISASIIIQLLTVVHPTLAEIKKEGESGRRKISQYTRYGTLVLAIFQSIGIATGLPNMPGMQGLVQNPGFAFYFTAVVSLVTGTMFLMWLGEQITERGIGNGISIIIFAGIVAGLPPAIAHTIEQARQGDLHFLVLLLVAVLVFAVTFFVVFVERGQRRIVVNYAKRQQGRRVYAAQSTHLPLKVNMAGVIPAIFASSIILFPATIASWFGGGTGWNWLTTISLYLQPGQPLYVLLYASAIIFFCFFYTALVFNPRETADNLKKSGAFVPGIRPGEQTAKYIDKVMTRLTLVGALYITFICLIPEFMRDAMKVPFYFGGTSLLIVVVVIMDFMAQVQTLMMSSQYESALKKANLKGYGR | 0.218 ± 0.098 | 0.00551 ± 0.00017
secY F158W (protein) MAKQPGLDFQSAKGGLGELKRRLLFVIGALIVFRIGSFIPIPGIDAAVLAKLLEQQRGTIIEMFNMFSGGALSRASIFALGIMPYISASIIIQLLTVVHPTLAEIKKEGESGRRKISQYTRYGTLVLAIFQSIGIATGLPNMPGMQGLVINPGFAFYWTAVVSLVTGTMFLMWLGEQITERGIGNGISIIIFAGIVAGLPPAIAHTIEQARQGDLHFLVLLLVAVLVFAVTFFVVFVERGQRRIVVNYAKRQQGRRVYAAQSTHLPLKVNMAGVIPAIFASSIILFPATIASWFGGGTGWNWLTTISLYLQPGQPLYVLLYASAIIFFCFFYTALVFNPRETADNLKKSGAFVPGIRPGEQTAKYIDKVMTRLTLVGALYITFICLIPEFMRDAMKVPFYFGGTSLLIVVVVIMDFMAQVQTLMMSSQYESALKKANLKGYGR | 0.298 ± 0.15 | < 0.0127
accA I115Q (protein) MSLNFLDFEQPIAELEAKIDSLTAVSRQDEKLDINIDEEVHRLREKSVELTRKIFADLGAWQIAQLARHPQRPYTLDYVRLAFDEFDELAGDRAYADDKAIVGGIARLDGRPVMQIGHQKGRETKEKIRRNFGMPAPEGYRKALRLMQMAERFKMPIITFIDTPGAYPGVGAEERGQSEAIARNLREMSRLGVPVVCTVIGEGGSGGALAIGVGDKVNMLQYSTYSVISPEGCASILWKSADKAPLAAEAMGIIAPRLKELKLIDSIIPEPLGGAHRNPEAMAASLKAQLLADLADLDVLSTEDLKNRRYQRLMSYGYA | 1.3 ± 0.51 | –
